Among the data in PubChem BioAssay AID485344 (National Center for Advancing Translational Sciences (NCATS), 2010) are inhibition values, retold here.

The structures appear in SMILES notation. The whole screen tested about 340,000 compounds, of which about 6,900 (2%) were called active. No stated cut-off is given here; in the data, active means inhibition above about 30%; inactive means below that, where a call was filed. This is a selection; strong and weak results do not stand in their true shares. Entries without a call were filed so in the source.

For this test, the target named is D(2) dopamine receptor (Homo sapiens) (UniProt P14416). The test is described as follows: HTS Assay for Allosteric Antagonists of the Human D2 Dopamine Receptor: Primary Screen for Antagonists. Further: 0% is about no effect. The note with it: HEK293 TREx D2 cells, calcium flux, dopamine EC80; at 10 µM; stronger effect = higher value. An outline of the steps: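 HEK293 T-REx D2 cells, tet-induced, calcium dye no-wash. Cpd pintool add, 180 s kinetic, then EC80 DA, 180 s kinetic. Ca flux read.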
Chain of UniProt P14416 (P14416 whole entry, looked up): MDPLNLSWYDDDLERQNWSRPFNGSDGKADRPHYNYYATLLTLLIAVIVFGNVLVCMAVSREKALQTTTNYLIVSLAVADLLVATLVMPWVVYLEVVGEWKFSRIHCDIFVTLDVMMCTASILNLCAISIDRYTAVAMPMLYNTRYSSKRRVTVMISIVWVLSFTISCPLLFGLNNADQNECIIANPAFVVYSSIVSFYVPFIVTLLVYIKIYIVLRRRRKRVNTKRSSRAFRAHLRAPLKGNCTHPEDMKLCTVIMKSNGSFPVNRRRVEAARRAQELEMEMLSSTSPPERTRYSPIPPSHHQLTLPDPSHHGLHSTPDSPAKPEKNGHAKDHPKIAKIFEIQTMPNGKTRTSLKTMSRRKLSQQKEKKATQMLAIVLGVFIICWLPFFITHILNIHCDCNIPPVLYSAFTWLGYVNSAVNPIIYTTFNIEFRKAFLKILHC
Turning to `CCOc1ccccc1CNC(=O)c1cccn1-c1nnc(N2CCCCC2)s1`, the inhibition is 8.13%.
As to `COc1ccccc1N1CCN(C(=O)c2cc(-c3ccccc3O)on2)CC1`, the inhibition came out at 25.8%.
As for `CCOc1ccc(C(=O)Nc2cc(-c3nc4ccccc4s3)ccc2OC)cc1`, the figure is 16%; as for `COc1ccc(C2=C(Nc3ccc(C)c(C)c3)c3ccccc3C2=O)cc1`, 14.8%.
Consider `Cc1c(C(=O)Nc2ccc(F)cc2)sc2nc[nH]c(=O)c12`, for which the inhibition is -7.38%.
As for `CCc1ccccc1NC(=O)c1cc(S(=O)(=O)N2CCCc3ccccc32)ccc1F`, the inhibition turned out to be 3.38%.
Consider `CC(C)CCn1c(=O)c2sccc2n2c(CCCC(=O)NCc3ccc(F)cc3)nnc12`, for which the inhibition was found to be 5.25%.
Take `O=C(Cn1c(=O)c2cccn2c2ccc(F)cc21)N1CCN(c2ccc(F)cc2)CC1`: the inhibition came out at 11.2%.
In the case of `CCOc1ccc(N(C)C(CNS(=O)(=O)c2ccccc2)c2ccccc2)cc1` (stereo unspecified), the inhibition was -2.4%.
With `COc1ccccc1-c1cc2nc(C)c(CCC(=O)NCc3cccc(Cl)c3)c(C)n2n1`, the inhibition was found to be 15.5%.
The same measure for `CC(=O)c1ccc(NC(=O)CN(C)S(=O)(=O)c2cccc3nsnc23)cc1`: -18.4%; for `COc1cc2oc(=O)c(Br)c(C)c2c(OC)c1OC`: active: 39.1%.
Turning to `CCOC(=O)C1CCCN(CCC(=O)Nc2cccc(C)c2)C1` (stereo unspecified), the inhibition is -4.06%.
Consider `COc1ccc(N2CC(NC(=O)C3CC3)CC2=O)cc1OC` (stereo unspecified), for which the inhibition was determined as 10.1%.
For the compound `COC(=O)c1cnn2c(C)c(Cc3c(C)cc(C)cc3C)c(C)nc12`, the inhibition was 20.1%.
For the compound `O=C(Nc1nnc(S(=O)(=O)N2CCCc3ccccc32)s1)c1ccccc1`, the inhibition amounted to 4.94%.
Take `O=c1c(CN2CCN(c3ccccn3)CC2)coc2ccccc12`: the inhibition was active: 79.2%.
Take `CCC1CN(C(=O)Nc2cccc3c2CCCC3)c2ccccc2O1` (stereo unspecified): the inhibition was -27.3%.
In the case of `COc1ccc(NC(=O)CCn2c(=O)c3cccn3c3ccccc32)c(OC)c1`, the inhibition was -20.5%.
The same measure for `Cc1ccc2c(=O)cc(C(=O)Nc3ccc(S(=O)(=O)N(C)Cc4ccccc4)cc3)oc2c1`: -8.72%; for `CCN(CC)S(=O)(=O)c1ccc2c(c1)c(=O)c(C(=O)N1CCN(c3cccc(C)c3)C(C)C1)cn2C` (stereo unspecified): -6.91%.
The same measure for `COc1cccc(C(C(=O)NC2CCCCC2)N(Cc2ccco2)C(=O)c2ccccn2)c1` (stereo unspecified): active: 34.1%; for `O=C(Nc1cccc(Cl)c1)c1ccc(F)c(S(=O)(=O)N2CCC3(CC2)OCCO3)c1`: 9.32%; for `Cc1cc(NC(=O)CCNS(=O)(=O)c2ccc3c(c2)oc(=O)n3C)ccc1Br`: -3.59%.
Regarding `CCN(C(=O)Cn1nnc2sc(-c3ccccc3)cc2c1=O)c1cccc(C)c1`, the inhibition was determined as 13.1%.
As for `COC(=O)C(C)Sc1ccc2nnc(CCNS(=O)(=O)c3ccccc3)n2n1` (stereo unspecified), the figure is active: 36.9%.
Regarding `CCN(CC)C(=O)c1cc(-c2ccc(Cl)cc2)on1`, the inhibition worked out at 1.45%.
Regarding `CCC(C)NC(=O)CSc1nc2n[nH]c(C)c2c(=N)n1-c1ccc(C)c(Cl)c1` (stereo unspecified), the inhibition is 3.64%.
As to `O=C(C1CCN(CCCc2ccccc2)CC1)N(CCc1ccccc1)Cc1ccccc1`, the inhibition is active: 38.7%.
Take `O=C(Nc1ccc(F)cc1F)c1cc2nc(-c3ccco3)cc(C(F)(F)Cl)n2n1`: the inhibition turned out to be 1.86%.
Turning to `CCC(Sc1nc2ccccc2c2nc(-c3ccccc3)nn12)C(=O)Nc1cccc(OC)c1` (stereo unspecified), the inhibition is -0.24%.
For the compound `COC(=O)c1c(NC(=O)CS(=O)(=O)c2ccc(C)cc2)sc2c1CCCC2`, the inhibition was -26.7%.
Consider `Cc1ccc2oc(=O)c3cnn(CC(=O)N4CCN(c5ccccc5)CC4)c3c2c1`, for which the inhibition is 13.2%.
For the compound `Cc1c(Cl)cccc1NC(=O)CCN1C(=O)c2ccccc2Sc2ncccc21`, the inhibition is -9.29%.
The same measure for `COC(=O)c1cc(C(=O)N2CCN(c3cccc(Cl)c3)CC2)cc([N+](=O)[O-])c1`: active: 30.2%; for `O=C(c1ccc(F)cc1)n1nc(-c2ccccc2)nc1NCc1ccc(F)cc1`: 11.5%.
Turning to `COc1cc2ccccc2cc1C(=O)N1CCN(c2nc3ccc(F)cc3s2)CC1`, the inhibition was -11.6%.
The same measure for `CCc1nn2c(=O)cc(COC(=O)c3ccccc3NC(=O)C3CCCCC3)nc2s1`: -1.6%.
In the case of `CCc1ccccc1NC(=O)CCc1c(C)nn(-c2ccc(N3CCOCC3)nn2)c1C`, the inhibition turned out to be 9.66%.
For `CCCCNC(=O)C1CCC(CNS(=O)(=O)c2ccc(NC(C)=O)cc2)CC1` (stereo unspecified), the inhibition is -13.6%.
For the compound `COc1ccc(-c2nc3c(c(SCC(=O)N(C)c4ccccc4)n2)Cc2cc(C)ccc2O3)cc1`, the inhibition was -18.5%.
As for `Cc1ccc2nc(NCc3ccc(F)cc3)c3nncn3c2c1`, the inhibition was -3.32%.
The same measure for `Cc1nc(-c2ccc(S(=O)(=O)NCc3ccc(N(C)C)cc3)cc2)co1`: 8.85%; for `CSc1ccc(CN2CCC(Cc3ccccc3)CC2)cc1`: active: 30.8%.
The same measure for `Cc1cccc(-n2ncc3c(N4CCN(c5ccccc5)CC4)ncnc32)c1`: -1.06%; for `CCN(CC)c1ccc(NC(=O)Cn2nc(C)n3cccc3c2=O)c(C)c1`: -8.54%; for `COc1cc(CCC(=O)NCc2ccc3c(c2)CCN3C(=O)c2ccc(F)cc2)cc(OC)c1OC`: -2.17%.
Consider `Clc1ccc(-c2nnc(SCc3nc(-c4ccccc4)no3)o2)cc1`, for which the inhibition was active: 40.6%.
Regarding `Cc1cccc(N2CCN(Cc3c(C)n(C)n(-c4ccccc4)c3=O)CC2)c1C`, the inhibition is active: 41.2%.
Turning to `COc1cccc(NC(=O)CCN2CCN(c3ccccc3F)CC2)c1`, the inhibition was active: 76.6%.
On to `Cc1ccc2nc(-c3cccnc3)c(Nc3ccccc3C)n2c1`, for which the inhibition was -0.671%.
For the compound `CCOc1ccc(S(=O)(=O)Nc2nc3ccccc3nc2Nc2ccc(OC)cc2)cc1`, the inhibition was -2.91%.
With `CCc1ccc(NC(=O)Cn2c(=O)n(Cc3ccco3)c(=O)c3cccnc32)cc1`, the inhibition was -8.22%.
With `CCCNC(=O)CCSc1nc(-c2ccc3c(c2)OCO3)cc(C(F)(F)F)n1`, the inhibition stood at 3.02%.
As for `COc1ccccc1CCNC(=O)C(=O)NCC1OCCN1S(=O)(=O)c1ccc(Cl)cc1` (stereo unspecified), the figure is active: 36.3%; as for `CCN(CC(=O)NCc1ccc(F)cc1)C(=O)/C=C/c1ccc(OC)c(S(=O)(=O)NC(C)C)c1`, active: 33.5%.
Take `CC(C)c1ccc(OCC(=O)N(Cc2ccc(N(C)C)cc2)C2CCS(=O)(=O)C2)cc1` (stereo unspecified): the inhibition is -2.26%.
Turning to `C=Cc1ccc(CSc2nc(-c3ccc(C)cc3)nc3c2Cc2c(CO)cnc(C)c2O3)cc1`, the inhibition is -10.1%.
Turning to `O=C(Nc1cccc(C(=O)OCc2cc(=O)n3c4c(sc3n2)CCCC4)c1)c1ccccc1`, the inhibition was -7.73%.
Turning to `O=c1c(S(=O)(=O)c2cccc(Cl)c2)cn(Cc2ccccc2)c2cc(N3CCOCC3)c(F)cc12`, the inhibition was -8.83%.
Turning to `Cc1cccc(NC(=O)C(NS(=O)(=O)c2ccc3c(c2)oc(=O)n3C)C(C)C)c1` (stereo unspecified), the inhibition came out at 3.3%.
On to `Cc1ccc(-n2nc(C(=O)N3CCN(c4cc(Cl)ccc4C)CC3)c3c4ccccc4n(C)c3c2=O)cc1`, for which the inhibition is -3.89%.
The same measure for `Cc1ccc(Cl)cc1-n1ncc2c(Nc3cccc(C)c3C)ncnc21`: 20.7%; for `O=C(c1ccc(CSc2nc3ccncc3n2Cc2ccccc2)cc1)N1CCCCCC1`: 0.282%; for `Cc1ccc(NC(=O)Cn2ccn(-c3ccc(F)c(F)c3)c(=O)c2=O)cc1C`: 10.8%.
For the compound `COc1ccccc1CCNS(=O)(=O)c1ccc(N2CCCCS2(=O)=O)cc1`, the inhibition was -10.5%.
The same measure for `COc1ccc(NC(=O)CCc2nnc3n(CC(C)C)c(=O)c4ccccc4n23)cc1`: -7.54%; for `CCc1ccccc1NC(=O)C1CCCN(c2ncnc3onc(C)c23)C1` (stereo unspecified): 4.93%; for `Cc1nc2ccn(Cc3ccco3)c(=O)c2cc1C(=O)N1CCN(c2ccccc2)CC1`: -5.29%.
For `Cc1ccc(C2c3[nH]c4ccccc4c3CCN2C(=O)CCC2CCCC2)cc1` (stereo unspecified), the inhibition was -24.2%.
The same measure for `COc1ccc(CNC(=O)c2ccc(CS(=O)Cc3ccccc3Cl)o2)cc1` (stereo unspecified): -19.1%.
As to `COc1ccccc1NC(=O)C1=C(C)Nc2nc(SCc3ccccc3F)nn2C1c1cccs1` (stereo unspecified), the inhibition amounted to 3.49%.
`O=C(COCc1cc(-c2ccc3c(c2)OCO3)on1)N1CCN(c2ccccc2)CC1`: the inhibition is -4.9%.
Take `Cc1ccc(C(=O)Nc2cccc(C(F)(F)F)c2)cc1Nc1cncnc1`: the inhibition was active: 33.2%.
Turning to `Cc1ccc(S(=O)(=O)NCCc2cn3ccsc3n2)cc1`, the inhibition is -18.5%.
As for `CCC(CC)C(=O)Nc1nc2c(s1)CC(C)CC2` (stereo unspecified), the inhibition is 4.75%.
As for `COc1ccc(-n2nnnc2C2CCN(S(=O)(=O)c3ccc(C(C)(C)C)cc3)CC2)cc1`, the figure is -13.9%.
For the compound `O=C(Nc1ccc2nc(SCC(=O)N3CCCc4ccccc43)sc2c1)c1ccccc1`, the inhibition turned out to be 17.1%.
Turning to `COc1ccc(N2CCN(C(=O)c3cccc(NC(=O)c4nsc5ccccc45)c3)CC2)cc1`, the inhibition stood at 20.7%.
For `CCOC(=O)c1ccc(NC(=O)Nc2cc3c(cc2N2CCCC2)n(C)c(=O)n3C)cc1`, the inhibition was -1.86%.
For the compound `COC(=O)c1cc(NC(=O)c2nn(C)c3c2COc2ccccc2-3)cc(C(=O)OC)c1`, the inhibition is -27.7%.
Take `Nc1c(C(=O)Nc2ccc(F)c(F)c2)sc2nc(-c3ccncc3)ccc12`: the inhibition is -17.3%.
For the compound `COc1cccc(CNC(=O)c2cc(C)nc3c2c(C)nn3-c2cccc(F)c2)c1`, the inhibition was 1.41%.
As for `O=C(Nc1cccnc1)c1cccc(S(=O)(=O)N2CCCCC2)c1`, the inhibition was active: 52.6%.
Take `Cc1cc(C)cc(NC(=O)Cn2nnc(-c3nc(-c4ccncc4)no3)c2N)c1`: the inhibition was -8.56%.
As for `Cc1cc2c(cc3c(SCc4nc(-c5ccccc5)oc4C)nnc(C)n32)o1`, the inhibition worked out at 21.1%.
As for `Cc1ccc(N2CCN(S(=O)(=O)c3ccc(F)c(C(=O)Nc4ccc(Cl)cc4Cl)c3)CC2C)cc1` (stereo unspecified), the figure is -0.0823%.
For the compound `COc1cc(NC(=O)c2cc(C)nc3c2c(C)nn3-c2ccccc2Cl)cc(OC)c1`, the inhibition is 9.15%.
Consider `Cc1ccc2cc3c(N)nn(C(=O)c4cccc(F)c4)c3nc2c1`, for which the inhibition was -5.78%.
On to `CC(=O)c1ccc(NC(=O)c2ccc(-c3nc(CSc4ccccc4)c(C)o3)cc2)cc1`, for which the inhibition is -8.99%.
As for `CCc1ccccc1NS(=O)(=O)c1ccc(NC(=O)N2CCCC2)cc1`, the figure is 15.5%.
Take `CCOc1ccc(-c2cc(-c3nc(-c4cc(OC)c(OC)c(OC)c4)no3)[nH]n2)cc1`: the inhibition is -2.36%.
In the case of `Cc1cc(C)nc(NN2C(=O)/C(=C/c3ccc(O)cc3)SC2=S)n1`, the inhibition is active: 44.7%.
Take `COc1cc(NC(=O)c2cc3ccccn3n2)cc(OC)c1OC`: the inhibition came to 12.9%.
For the compound `COc1ccc(CCNC(=O)c2cnc3sc(N4CCCC4)nn3c2=O)cc1OC`, the inhibition was -0.0853%.
Consider `O=C(CN1C(=O)COc2ccc(S(=O)(=O)N3CCCCC3)cc21)NCc1ccc(Cl)cc1`, for which the inhibition stood at 3.76%.
